This is one part of the list. Most values come without repeats; read them as rough.
Columns and labels:
Assay in all cases: cell count relative to DMSO control; melanoma cells; higher = more viable cells
Settings in all cases: library dose: low library concentration; 72 h
WM115 = tested on: WM115
WM1716 = tested on: WM1716
WM1745 = tested on: WM1745
WM3526 = tested on: WM3526
WM3619 = tested on: WM3619
WM451Lu = tested on: WM451Lu
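Note: cell number obtained by counting DAPI-stained nuclei in high-throughput microscope images with image analysis software, screen run in 1,536-well plates.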

SMILES | cell count (WM115) [%] | cell count (WM1716) [%] | cell count (WM1745) [%] | cell count (WM3526) [%] | cell count (WM3619) [%] | cell count (WM451Lu) [%]
CCCS(=O)(=O)Nc1ccc(F)c(C(=O)c2c[nH]c3ncc(Cl)cc23)c1F + C/C(O)=C(\C#N)C(=O)Nc1cc(Br)ccc1Br [LFM-A13] (first compound 0.08 µM, partner dose 2 µM) | 108 | 104 | 98.3 | 57.2 | 94.2 | 99.8
CC[C@]1(O)C[C@H]2CN(CCc3c([nH]c4ccccc34)[C@@](C(=O)OC)(c3cc4c(cc3OC)N(C=O)[C@H]3[C@@](O)(C(=O)OC)[C@H](OC(C)=O)[C@]5(CC)C=CCN6CC[C@]43[C@@H]65)C2)C1 [vincristine] + Cc1cc(SCc2sc(-c3ccc(C(F)(F)F)c(F)c3)nc2C)ccc1OCC(=O)O [GW0742] (first compound 0.0001 µM, partner dose 2 µM) | 62.3 | 48.8 | 85.4 | 85.5 | 58.5 | 65.1
CCc1ccc(CCOc2ccc(CC3SC(=O)NC3=O)cc2)nc1 (stereo not drawn) [pioglitazone] + Cc1cc(SCc2sc(-c3ccc(C(F)(F)F)c(F)c3)nc2C)ccc1OCC(=O)O [GW0742] (first compound 2 µM, partner dose 2 µM) | 94 | 84.8 | 89.5 | 109 | 129 | 95.4
CCN(CC)CCNC(=O)c1c(C)[nH]c(/C=C2\C(=O)Nc3ccc(F)cc32)c1C [sunitinib] + C/C(O)=C(\C#N)C(=O)Nc1cc(Br)ccc1Br [LFM-A13] (first compound 0.4 µM, partner dose 2 µM) | 101 | 117 | 82.9 | 74.1 | 106 | 78.3
CCN(CC)CCCCNc1ncc2cc(-c3cc(OC)cc(OC)c3)c(NC(=O)NC(C)(C)C)nc2n1 + O=C(Oc1ccc([N+](=O)[O-])cc1)N1CCC(C(O)(c2ccc3c(c2)OCO3)c2ccc3c(c2)OCO3)CC1 [JZL184] (first compound 0.1 µM, partner dose 1 µM) | 97.2 | 106 | 107 | 96.8 | 91.8 | 92.3
Cc1cc(SCc2sc(-c3ccc(C(F)(F)F)c(F)c3)nc2C)ccc1OCC(=O)O + C/C(O)=C(\C#N)C(=O)Nc1cc(Br)ccc1Br [LFM-A13] (first compound 2 µM, partner dose 2 µM) | 99.8 | 111 | 95.8 | 70.8 | 95.2 | 117
O=C(/C=C/c1cccnc1)NCCCCC1CCN(C(=O)c2ccccc2)CC1 + Cn1cc(C2=C(c3cn(C4CCN(Cc5ccccn5)CC4)c4ccccc34)C(=O)NC2=O)c2ccccc21 [Enzastaurin] (first compound 0.01 µM, partner dose 0.8 µM) | 103 | 95 | 100 | 84.2 | 88.7 | 124
COc1cc([C@@H]2c3cc4c(cc3[C@@H](O[C@@H]3O[C@@H]5CO[C@@H](C)O[C@H]5[C@H](O)[C@H]3O)[C@H]3COC(=O)[C@H]23)OCO4)cc(OC)c1O [etoposide] + C[As](C)SC[C@H](NC(=O)CC[C@H](N)C(=O)O)C(=O)NCC(=O)O [Darinaparsin] (first compound 0.02 µM, partner dose 0.4 µM) | 97.1 | 109 | 104 | 99.6 | 110 | 108
CCCCCCCCCCCCCCCCCCOP(=O)([O-])OC1CC[N+](C)(C)CC1 [Perifosine] + C[As](C)SC[C@H](NC(=O)CC[C@H](N)C(=O)O)C(=O)NCC(=O)O [Darinaparsin] (first compound 0.4 µM, partner dose 0.4 µM) | 102 | 108 | 72.6 | 70.9 | 100 | 58.6
CC1(C)CCC(c2ccc(Cl)cc2)=C(CN2CCN(c3ccc(C(=O)NS(=O)(=O)c4ccc(N[C@H](CCN5CCOCC5)CSc5ccccc5)c(S(=O)(=O)C(F)(F)F)c4)cc3)CC2)C1 + C[As](C)SC[C@H](NC(=O)CC[C@H](N)C(=O)O)C(=O)NCC(=O)O [Darinaparsin] (first compound 0.4 µM, partner dose 0.4 µM) | 98.4 | 89.8 | 15.7 | 108 | 96.3 | 80.5
Cc1cc(SCc2sc(-c3ccc(C(F)(F)F)c(F)c3)nc2C)ccc1OCC(=O)O + Oc1cc(-c2nc(-c3ccccc3)[nH]c2-c2ccncc2)ccc1Cl [L779450] (first compound 2 µM, partner dose 0.2 µM) | 84.6 | 117 | 86.3 | 72.4 | 114 | 94.9
Cc1cc(N2CCOCC2)cc2[nH]c(-c3c(NC[C@@H](O)c4cccc(Cl)c4)cc[nH]c3=O)nc12 + Cc1cc(SCc2sc(-c3ccc(C(F)(F)F)c(F)c3)nc2C)ccc1OCC(=O)O [GW0742] (first compound 0.2 µM, partner dose 2 µM) | 104 | 110 | 84.4 | 104 | 89.1 | 101
C=CCNC1=C2C[C@@H](C)C[C@H](OC)[C@H](O)[C@@H](C)/C=C(\C)[C@H](OC(N)=O)[C@@H](OC)/C=C\C=C(/C)C(=O)NC(=CC1=O)C2=O [Tanespimycin] + O=C(Oc1ccc([N+](=O)[O-])cc1)N1CCC(C(O)(c2ccc3c(c2)OCO3)c2ccc3c(c2)OCO3)CC1 [JZL184] (first compound 0.002 µM, partner dose 1 µM) | 91.6 | 96.9 | 91.3 | 87.7 | 94.8 | 102
NC(=O)Nc1cc(-c2cccc(F)c2)sc1C(=O)N[C@H]1CCCNC1 + Cc1cc(SCc2sc(-c3ccc(C(F)(F)F)c(F)c3)nc2C)ccc1OCC(=O)O [GW0742] (first compound 0.02 µM, partner dose 2 µM) | 99.1 | 96.6 | 99.4 | 90.5 | 37.7 | 96.7
Cn1nnc2c(C(N)=O)ncn2c1=O [temozolomide] + O=C(Oc1ccc([N+](=O)[O-])cc1)N1CCC(C(O)(c2ccc3c(c2)OCO3)c2ccc3c(c2)OCO3)CC1 [JZL184] (first compound 2 µM, partner dose 1 µM) | 102 | 89.7 | 77.1 | 110 | 91.9 | 116
N#Cc1c(O)c2c(-c3ccc(-c4ccccc4O)cc3)csc2[nH]c1=O + O=C(Oc1ccc([N+](=O)[O-])cc1)N1CCC(C(O)(c2ccc3c(c2)OCO3)c2ccc3c(c2)OCO3)CC1 [JZL184] (first compound 2 µM, partner dose 1 µM) | 119 | 91.7 | 112 | 91.7 | 103 | 92
NC(=O)c1ccc(N(C(N)=O)c2c(F)cccc2F)nc1-c1ccc(F)cc1F + C[C@]12O[C@H](C[C@]1(O)CO)n1c3ccccc3c3c4c(c5c6ccccc6n2c5c31)CNC4=O [Lestaurtinib] (first compound 0.4 µM, partner dose 0.004 µM) | 87.8 | 94.7 | 99.9 | 78.5 | 86.3 | 93.9
C[C@]1(O)C[C@@H](c2nc(-c3ccc4ccc(-c5ccccc5)nc4c3)c3c(N)nccn32)C1 + N.N.[Cl][Pt][Cl] [cisplatin] (first compound 0.4 µM, partner dose 1.6 µM) | 103 | 81 | 81.4 | 94 | 108 | 88.6
COc1cc([C@@H]2c3cc4c(cc3[C@@H](O[C@@H]3O[C@@H]5CO[C@@H](C)O[C@H]5[C@H](O)[C@H]3O)[C@H]3COC(=O)[C@H]23)OCO4)cc(OC)c1O [etoposide] + Cc1cc(SCc2sc(-c3ccc(C(F)(F)F)c(F)c3)nc2C)ccc1OCC(=O)O [GW0742] (first compound 0.02 µM, partner dose 2 µM) | 101 | 96.4 | 91 | 111 | 86.5 | 119
C/C(O)=C(\C#N)C(=O)Nc1cc(Br)ccc1Br + CCCCCCCCCCCC1=C(O)C(=O)C=C(O)C1=O [Embelin] (first compound 2 µM, partner dose 1.2 µM) | 95.9 | 99 | 92.6 | 108 | 98.9 | 103
COc1ccc(-c2ccc3c(N4CCOCC4)nc(N4C[C@@H](C)O[C@@H](C)C4)nc3n2)cc1CO + Cc1cc(SCc2sc(-c3ccc(C(F)(F)F)c(F)c3)nc2C)ccc1OCC(=O)O [GW0742] (first compound 0.02 µM, partner dose 2 µM) | 86.6 | 93.1 | 94.7 | 108 | 73 | 97.7
C[C@@H](Oc1cc(-c2cnn(C3CCNCC3)c2)cnc1N)c1c(Cl)ccc(F)c1Cl [Crizotinib] + C/C(O)=C(\C#N)C(=O)Nc1cc(Br)ccc1Br [LFM-A13] (first compound 0.2 µM, partner dose 2 µM) | 103 | 99 | 102 | 99.7 | 111 | 84.2
COc1cc(Nc2ncc(F)c(Nc3ccc4c(n3)NC(=O)C(C)(C)O4)n2)cc(OC)c1OC [Tamatinib] + O=C(Oc1ccc([N+](=O)[O-])cc1)N1CCC(C(O)(c2ccc3c(c2)OCO3)c2ccc3c(c2)OCO3)CC1 [JZL184] (first compound 0.4 µM, partner dose 1 µM) | 79.3 | 87.5 | 71.8 | 87.2 | 100 | 86.2
CS(=O)(=O)CCNCc1ccc(-c2ccc3ncnc(Nc4ccc(OCc5cccc(F)c5)c(Cl)c4)c3c2)o1 [lapatinib] + C/C(O)=C(\C#N)C(=O)Nc1cc(Br)ccc1Br [LFM-A13] (first compound 0.8 µM, partner dose 2 µM) | 99.1 | 104 | 102 | 80.3 | 112 | 90.4
CS(=O)(=O)c1ccc(C(=O)Nc2ccc(Cl)c(-c3ccccn3)c2)c(Cl)c1 [vismodegib] + C[As](C)SC[C@H](NC(=O)CC[C@H](N)C(=O)O)C(=O)NCC(=O)O [Darinaparsin] (first compound 1 µM, partner dose 0.4 µM) | 118 | 115 | 120 | 123 | 107 | 95.3
Cc1ccc(NC(=O)c2cccc(N(C)C)c2)cc1NC(=O)c1ccc(O)cc1 + O=C(Oc1ccc([N+](=O)[O-])cc1)N1CCC(C(O)(c2ccc3c(c2)OCO3)c2ccc3c(c2)OCO3)CC1 [JZL184] (first compound 2 µM, partner dose 1 µM) | 102 | 96.4 | 97.1 | 92.1 | 110 | 101
N#CC[C@H](C1CCCC1)n1cc(-c2ncnc3[nH]ccc23)cn1 [ruxolitinib] + N.N.[Cl][Pt][Cl] [cisplatin] (first compound 1 µM, partner dose 1.6 µM) | 107 | 87 | 88.4 | 90.6 | 102 | 93
CCN(CC)CCNC(=O)c1c(C)[nH]c(/C=C2\C(=O)Nc3ccc(F)cc32)c1C [sunitinib] + N.N.[Cl][Pt][Cl] [cisplatin] (first compound 0.4 µM, partner dose 1.6 µM) | 101 | 122 | 95.7 | 67.1 | 116 | 99.4

Source: the supplement of paper PMC4604168 (melanoma cell lines)
